Assay results reported in the supplement of paper PMC9151546.
Many values rest on one well or one pass, so single values are uncertain.

Columns and labels:
[1] = test system: CHO-K1; experiment: micronucleus frequency (% of nucleated events); higher = more micronuclei (genotoxic)
[2] = test system: CHO-K1; experiment: relative survival (nuclei to bead ratio vs DMSO control) (% of vehicle control); higher = more surviving cells
[3] = test system: CHO-K1; experiment: hypodiploid nuclei frequency (% of nucleated events); higher = more hypodiploid events (aneugenic)
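Throughout, for hypodiploid nuclei frequency (% of nucleated events): hypodiploid nuclei gated on a flow cytometer with 488 nm excitation after SYTOX Green staining, cultures at 37 °C, positive controls vinblastine without S9 and cyclophosphamide with S9.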
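Throughout, for micronucleus frequency (% of nucleated events): cells lysed with nuclei stained by SYTOX Green, then micronucleus-gated events counted against nucleated events by flow cytometry with 488 nm excitation.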
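Throughout, for relative survival (nuclei to bead ratio vs DMSO control): Lysed-cell nuclei stained with SYTOX Green and counted against counting beads by flow cytometry at 488 nm excitation, with vinblastine (no S9) and cyclophosphamide (plus S9) as positive controls.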

COC(=O)c1ccccc1C(=O)OC [Dimethyl phthalate]
Conditions | hypodiploid nuclei frequency, [3] [%] | micronucleus frequency, [1] [%] | relative survival, [2]
concentration: 4.5 (µM), S9 metabolic activation: with S9, exposure time: 3-4 hours | 0.27 | 1.44 | 135
concentration: 4.5 (µM), S9 metabolic activation: without S9, exposure time: 24 hours | 0.44 | 1.34 | 112.4
concentration: 5.63 (µM), S9 metabolic activation: with S9, exposure time: 3-4 hours | 0.31 | 1.2 | 103.7
concentration: 5.63 (µM), S9 metabolic activation: without S9, exposure time: 24 hours | 0.46 | 1.32 | 114
concentration: 7.04 (µM), S9 metabolic activation: with S9, exposure time: 3-4 hours | 0.28 | 2.16 | 107
concentration: 7.04 (µM), S9 metabolic activation: without S9, exposure time: 24 hours | 0.42 | 1.49 | 119
concentration: 8.8 (µM), S9 metabolic activation: with S9, exposure time: 3-4 hours | 0.21 | 1.42 | 91.4
concentration: 8.8 (µM), S9 metabolic activation: without S9, exposure time: 24 hours | 0.63 | 1.27 | 117
concentration: 11 (µM), S9 metabolic activation: with S9, exposure time: 3-4 hours | 0.25 | 2.01 | 104.6
concentration: 11 (µM), S9 metabolic activation: without S9, exposure time: 24 hours | 0.53 | 1.38 | 109
concentration: 13.7 (µM), S9 metabolic activation: with S9, exposure time: 3-4 hours | 0.22 | 1.37 | 101
concentration: 13.7 (µM), S9 metabolic activation: without S9, exposure time: 24 hours | 0.64 | 1.4 | 117
concentration: 17.2 (µM), S9 metabolic activation: with S9, exposure time: 3-4 hours | 0.27 | 1.39 | 103
concentration: 17.2 (µM), S9 metabolic activation: without S9, exposure time: 24 hours | 0.37 | 1.18 | 118
concentration: 21.5 (µM), S9 metabolic activation: with S9, exposure time: 3-4 hours | 0.19 | 1.21 | 100
concentration: 21.5 (µM), S9 metabolic activation: without S9, exposure time: 24 hours | 0.56 | 1.3 | 107
concentration: 26.8 (µM), S9 metabolic activation: with S9, exposure time: 3-4 hours | 0.31 | 1.24 | 120
concentration: 26.8 (µM), S9 metabolic activation: without S9, exposure time: 24 hours | 0.47 | 1.4 | 95.8
concentration: 33.6 (µM), S9 metabolic activation: with S9, exposure time: 3-4 hours | 0.16 | 1.42 | 108
concentration: 33.6 (µM), S9 metabolic activation: without S9, exposure time: 24 hours | 0.4 | 1.73 | 91.8
concentration: 41.9 (µM), S9 metabolic activation: with S9, exposure time: 3-4 hours | 0.28 | 1.36 | 114
concentration: 41.9 (µM), S9 metabolic activation: without S9, exposure time: 24 hours | 0.53 | 1.5 | 95.9
concentration: 52.4 (µM), S9 metabolic activation: with S9, exposure time: 3-4 hours | 0.31 | 1.11 | 90.7
concentration: 52.4 (µM), S9 metabolic activation: without S9, exposure time: 24 hours | 0.55 | 1.29 | 103
concentration: 65.5 (µM), S9 metabolic activation: with S9, exposure time: 3-4 hours | 0.29 | 1.3 | 98
concentration: 65.5 (µM), S9 metabolic activation: without S9, exposure time: 24 hours | 0.61 | 1.65 | 110
concentration: 81.9 (µM), S9 metabolic activation: with S9, exposure time: 3-4 hours | 0.29 | 1.75 | 92.4
concentration: 81.9 (µM), S9 metabolic activation: without S9, exposure time: 24 hours | 0.51 | 1.42 | 106
concentration: 102 (µM), S9 metabolic activation: with S9, exposure time: 3-4 hours | 0.31 | 1.85 | 98.6
concentration: 102 (µM), S9 metabolic activation: without S9, exposure time: 24 hours | 0.82 | 1.65 | 82.3
concentration: 128 (µM), S9 metabolic activation: with S9, exposure time: 3-4 hours | 0.27 | 1.24 | 91.1
concentration: 128 (µM), S9 metabolic activation: without S9, exposure time: 24 hours | 0.75 | 1.92 | 114
concentration: 160 (µM), S9 metabolic activation: with S9, exposure time: 3-4 hours | 0.29 | 1.43 | 84.6
concentration: 160 (µM), S9 metabolic activation: without S9, exposure time: 24 hours | 0.78 | 1.93 | 106
concentration: 200 (µM), S9 metabolic activation: with S9, exposure time: 3-4 hours | 0.2 | 1.49 | 100
concentration: 200 (µM), S9 metabolic activation: without S9, exposure time: 24 hours | 0.97 | 2.15 | 99.7
